# Test results: publication PMC4336329 (PLoS ONE, 2015)
# The whole screen tested about 310,000 compounds, of which about 14,000 (4.5%) showed an effect of 50% or more. Effects have a minus sign here. The list shows a part of the results.
# Target: human ether-à-go-go-related gene (hERG) potassium channel (human, UniProt Q12809)
# Test: primary screen, population patch clamp on CHO cells stably expressing hERG
# 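Note: peak tail current of the secondary pulse compared with the same well before compound.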
# Chain of human ether-à-go-go-related gene (hERG) potassium channel (Q12809 whole entry, looked up): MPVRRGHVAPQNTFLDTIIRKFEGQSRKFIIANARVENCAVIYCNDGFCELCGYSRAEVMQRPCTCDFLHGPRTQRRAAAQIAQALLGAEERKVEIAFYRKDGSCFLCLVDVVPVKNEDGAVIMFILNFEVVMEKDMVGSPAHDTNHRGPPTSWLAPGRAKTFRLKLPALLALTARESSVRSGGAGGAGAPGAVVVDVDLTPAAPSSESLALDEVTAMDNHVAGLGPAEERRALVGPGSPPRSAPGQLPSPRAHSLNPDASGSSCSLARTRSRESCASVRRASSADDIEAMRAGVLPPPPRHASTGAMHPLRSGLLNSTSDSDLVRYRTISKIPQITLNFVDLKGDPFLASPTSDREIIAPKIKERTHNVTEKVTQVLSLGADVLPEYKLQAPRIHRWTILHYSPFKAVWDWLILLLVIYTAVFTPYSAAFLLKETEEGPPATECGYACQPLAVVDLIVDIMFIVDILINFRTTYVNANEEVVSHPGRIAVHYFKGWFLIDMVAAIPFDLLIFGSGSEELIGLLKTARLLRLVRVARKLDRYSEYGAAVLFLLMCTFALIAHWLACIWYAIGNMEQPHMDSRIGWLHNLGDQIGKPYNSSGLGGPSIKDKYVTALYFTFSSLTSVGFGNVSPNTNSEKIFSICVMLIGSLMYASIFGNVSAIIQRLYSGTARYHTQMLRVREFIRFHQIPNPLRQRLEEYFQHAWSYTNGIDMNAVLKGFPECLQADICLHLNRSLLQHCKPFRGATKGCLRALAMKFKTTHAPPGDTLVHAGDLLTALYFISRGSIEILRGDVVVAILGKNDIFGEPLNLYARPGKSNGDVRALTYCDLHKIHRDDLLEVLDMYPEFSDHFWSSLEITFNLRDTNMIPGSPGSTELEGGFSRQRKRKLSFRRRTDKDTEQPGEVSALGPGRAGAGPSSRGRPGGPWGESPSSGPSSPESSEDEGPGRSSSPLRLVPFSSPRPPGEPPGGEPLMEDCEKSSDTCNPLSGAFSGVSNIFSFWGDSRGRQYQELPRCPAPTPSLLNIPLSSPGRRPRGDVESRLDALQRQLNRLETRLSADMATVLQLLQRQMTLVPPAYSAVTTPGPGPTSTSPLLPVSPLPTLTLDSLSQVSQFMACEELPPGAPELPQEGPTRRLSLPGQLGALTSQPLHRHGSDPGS
row,SMILES,"hERG current change (%, negative = inhibition) at 10uM [%]"
1,CCOC(=O)C1CCN(c2nc3ccccc3nc2C(C#N)C(=O)OCCOC)CC1 (stereo not drawn),-27.4
2,O=C(CN1CCCCC1)Nc1ccc(S(=O)(=O)N2CCCCCC2)cc1,-35.5
3,CCOC(=O)c1oc2ccccc2c1COC(=O)CNC(=O)c1ccccc1,18.5
4,CCOC(=O)Cc1nnc(NC(=O)COc2ccc(OC)cc2)s1,-13
5,Cc1[nH]c2ccccc2c1C(=O)C(=O)N1CCN(C)CC1,18.5
6,C=CCNC(=S)Nc1ccc2nc(C)oc2c1,10.7
7,COc1ccc(C2CC(c3cccs3)=NN2C(=O)CCC(=O)O)cc1 (stereo not drawn),10.5
8,COc1ccc(OCc2cccc(C(=O)N3CCCC3)c2)cc1,-3.08
9,CCOC(=O)[C@H]1[C@H]2COc3ccc(Cl)cc3[C@@H]2N2C(=O)c3ccc(C)cc3NC(=O)[C@@]12C,5.25
10,Cc1cn2c(-c3cccnc3)nnc2s1,-4.47
11,COc1cc(C(=O)NC(=S)Nc2ccccc2N2CCCC2)cc(OC)c1OC,4.4
12,COc1ccc(N2CCN(C(=O)COC(=O)c3oc4ccccc4c3C)CC2)cc1,-21.6
13,CCOC(=O)c1c(C)[nH]c(C)c1S(=O)(=O)NCc1ccccc1OCC,22.9
14,CC12C=CC3(O1)C(C(=O)N(c1ccccc1)C3C(=O)NC1CCCC1)C2C(N)=O (stereo not drawn),-10.4
15,CCOC(=O)C1=C(C)N=C2SC(CC)C(=O)N2C1c1cccc(F)c1 (stereo not drawn),-33.5
16,Cn1c(O)c(C=Nc2ccc3c(c2)CCC3)c(=O)n(C)c1=O,3.67
17,CC[n+]1c(/C=C/c2ccc(OC)c(OC)c2)ccc2ccccc21.[I-],23.5
18,O=C(Cn1nnc(-c2cccs2)n1)N1CCOCC1,0.125
19,C/C(=N/Nc1nc(C)cc(-c2ccccc2)n1)c1ccco1,-1.42
20,O=C(NC(=S)Nc1ccc(CN2CCOCC2)cc1)c1ccc(-c2ccc(Br)cc2)o1,13.7
21,Cc1cc(NC(=O)Cc2ccccc2)ccc1NC(=O)c1cccs1,11.7
22,O=C(CCSc1ccccc1)Nc1ccc(S(=O)(=O)N2CCOCC2)cc1,-25.2
23,Cc1ccc(C(=O)N2N=C(c3ccc(Br)cc3)CC2c2ccccc2O)cc1 (stereo not drawn),0.897

row,SMILES,"hERG current change (%, negative = inhibition) at 10uM [%]"
1,FC(F)Oc1ccc(NC(=S)NNc2ccnc3cc(Cl)ccc23)cc1,32.9
2,CCOc1ncccc1C(=O)NCC1COc2ccccc2O1 (stereo not drawn),-17.9
3,COc1ccc(-n2nc(C(=O)O)c3ccccc3c2=O)cc1,-12.1
4,CC(Oc1ccc(C(=O)c2ccccc2)cc1)C(=O)N1CCOCC1 (stereo not drawn),-28.5
5,Cn1cc(-c2ccno2)c(C(=O)O)n1,31.7
6,O=c1n(Cc2ccccc2)c2cc(Cl)cnc2n1Cc1ccccc1,-6.94
7,Cc1ccc2nc(-c3ccccc3)cc(C(=O)N3CCN(S(=O)(=O)c4c(C)noc4C)CC3)c2c1,6.62
8,CCN(/C=N/S(=O)(=O)c1ccc(Cl)cc1)CC,10.6
9,Cc1nn(CC(=O)NCCCN2CCCCC2C)c(=O)c2cccn12 (stereo not drawn),21.6
10,O=C(Nc1cccc([N+](=O)[O-])c1)c1ccc2snnc2c1,-10.4
11,Cc1ccc(NC(=S)/C(=C(\[O-])c2ccc(Cl)s2)[n+]2cccc(CO)c2)cc1C,11.7
12,COC(=O)c1sccc1NC(=S)N1CC(C)CC(C)C1 (stereo not drawn),9.72
13,COCCCn1c(C)cc(C(=O)COC(=O)CCc2nc3ccccc3c(=O)[nH]2)c1C,3.27
14,COC(=O)C1=C(C)N(C(C)C)C(=O)C1(NC(=O)C1CCCCC1)C(F)(F)F (stereo not drawn),-1.54
15,CCOC(=O)c1c(NC(=O)c2ccccc2C(=O)O)sc2c1CCCC2,18
16,CCCc1cc(NCC2CCCO2)n2c(nc3ccccc32)c1C#N (stereo not drawn),-66.5
17,CCOc1ccc(-c2nn[nH]n2)cc1,-9.16
18,CC1(C)CC(=O)C=C(NC2CC(C)(C)NC(C)(C)C2)C1,11.5
19,COc1ccccc1NCCC(=O)OCC(=O)NC1CC1,7.08
20,Clc1ccc(-c2ncc3ccccn23)c(Cl)c1,8.69
21,CC(OC(=O)CCC(=O)c1ccc(Cl)s1)C(=O)NC1(C#N)CCCCC1 (stereo not drawn),-19.1
22,S=C(Nc1ccccc1)Nc1ccc(Br)cc1,18
23,COc1ccc(-c2cc3ncc(C(C)=O)c(C)n3n2)cc1,35.1

row,SMILES,"hERG current change (%, negative = inhibition) at 10uM [%]"
1,COc1ccccc1C(=O)NN1C(=O)C2C3C=CC(O3)C2C1=O (stereo not drawn),11
2,COc1ccc(NC(=O)c2cc(F)cc(F)c2)cc1Cl,9.25
3,O=C(Cc1ccccc1)NN1C(=O)C2C3C=CC(C4CC34)C2C1=O (stereo not drawn),7.9
4,COc1ccccc1Nc1nc(Cl)nc(Nc2ccccc2OC)n1,-5.92
5,COc1c(C)cc(S(=O)(=O)NCc2ccccn2)c(C)c1C,14.2
6,CC(C)(C)c1cc(CCC(=O)NNC(=O)c2ccncc2)cc(C(C)(C)C)c1O,-5.19
7,CC(Nc1ncnc2nc[nH]c12)c1ccccc1 (stereo not drawn),-0.89
8,Cc1c[n+]([O-])ccc1Oc1ccc([N+](=O)[O-])cc1,-9.03
9,O=C(CSc1nnnn1C1CCCC1)Nc1ccccc1N1CCOCC1,-13.9
10,COCC(=O)Oc1c(Sc2ccccc2[N+](=O)[O-])c(C)nn1C(C)(C)C,7.51
11,Cn1cnnc1SCC(=O)NCCC(c1ccccc1)c1ccccc1,7.79
12,CC(=O)Nc1ccc(S(=O)(=O)N2CCCC2C(=O)Nc2ccc3c(c2)OCCO3)cc1 (stereo not drawn),21
13,O=C(CCNC(=O)c1ccccc1Cl)Nc1nc(-c2ccc(F)cc2)cs1,-38
14,Cl.OCCN(CCO)CC(O)COCCC12CC3CC(CC(C3)C1)C2 (stereo not drawn),3.74
15,Cc1cc(S(=O)(=O)Nc2cccc(Cl)c2)c(C)s1,8.15
16,CCN(CC)CCOc1ccc2nc(N(C)C)sc2c1.Cl,11.1
17,O=c1nc2ccccc2c2n1CC(CN1CCN(c3ccc(F)cc3)CC1)N2 (stereo not drawn),-68.6
18,CC(C)(C)c1ccc(S(=O)(=O)NNC(=O)C2CCN(Cc3cccc(F)c3)CC2)cc1,-12.8
19,COc1ccc(C(=O)NC2CCN(S(=O)(=O)c3ccc(C)cc3)CC2)cc1,10.7
20,CN1CCN(C/C(=C2/N=C(c3ccccc3)OC2=O)N(C)C)CC1,-44.3
21,COc1ccc(C(=O)Nc2ccccc2C(=O)NC(C)C)cc1OC,-6.82
22,COC(=O)/C=C1\C(=O)N(c2nc3ccccc3s2)C(=S)N1c1ccc(F)cc1,17.7
23,COc1cccc(-n2c(Cc3cc(=O)[nH]c(=O)[nH]3)nnc2SCc2cccc(C(F)(F)F)c2)c1,15.8

row,SMILES,"hERG current change (%, negative = inhibition) at 10uM [%]"
1,Cn1nc(C(=O)NCCN2CCOCC2)c2ccccc2c1=O,21.2
2,O=C(CCCSc1nc2ccccc2[nH]1)NCc1ccccc1,-23.9
3,CCn1c(SCC(=O)c2cc(C)ccc2C)nc2cc(S(=O)(=O)N3CCOCC3)ccc21,-7.65
4,CN(CC(=O)Nc1ccc(C#N)cc1)Cc1ccc(Cl)cc1,-68.6
5,CC(NC(=O)/C(C#N)=C/c1ccc(C(=O)O)cc1)c1ccccc1 (stereo not drawn),-14.5
6,COC(=O)C1=C(c2ccc(-c3ccccc3)c(F)c2)C[C@@H]2CC[C@H]1N2C(=O)NCC1CC1,9.3
7,Cc1[nH][nH]c(=O)c1N=Nc1ccccc1C#N,-3.8
8,CCCCC(=O)Nc1ccc(NC(=S)NC(=O)c2cccs2)cc1OC,-3.91
9,NNC(=O)c1cc(-c2ccccc2)sc1N,9.61
10,Oc1[nH]c(=S)sc1/C=C1\C(c2ccccc2)=Nc2ccccc21,34.2
11,Cc1c(C)c2c(C)[nH]nc2oc1=O,14.7
12,O=C(CNC(=O)c1ccc(N2C(=O)c3ccccc3C2=O)cc1)OCC(=O)c1ccc(Cl)cc1,-0.893
13,COc1ccccc1NC(=S)N1CCN(c2ccccn2)CC1,9.3
14,CCN1C(C#N)=C(C#N)N=C(C)CC1(C)C,17.7
15,O=C(O)c1ccccc1C(=O)NNC(=O)C(c1ccccc1)c1ccccc1,19.9
16,CC(NC(=O)CCSCCC(=O)NC(C)c1ccccc1)c1ccccc1 (stereo not drawn),-0.992
17,Cc1ccc(C(=O)NC2CCN(CC(=O)Nc3cccc([N+](=O)[O-])c3)CC2)cc1,-71.4
18,Cc1ccc(NS(=O)(=O)c2cccc(C(=O)NCC(c3ccco3)N3CCCCC3)c2)cc1 (stereo not drawn),-20.1
19,O=C(Nc1ccccc1)c1nc[nH]c1C(=O)N1CCN(c2ccccc2)CC1,-1.35
20,O=C1C=CC(=O)C(C2=C3C(=O)N(CCc4ccccc4)CC(=O)N3CCC2)=C1,-11.9
21,C=CCOc1ccc(/C=C/C(=O)OCC(=O)NCc2cccs2)cc1,9.06
